# According to PubChem BioAssay AID485367 (National Center for Advancing Translational Sciences (NCATS), 2010):
# About 560 (0.17%) of roughly 330,000 compounds were called active. The shares of active, inactive and inconclusive entries below differ from those in the screen. The call rests on the fitted dose curve; in most records, active means well fitted inhibition curve with a large enough effect; inconclusive means small, poorly fitted or top-dose-only effect, or effect the other way; inactive means flat fitted curve, though single readings scatter. No potency is given beside an inconclusive call; the fits are too rough.
# Target: ATP-dependent 6-phosphofructokinase (Trypanosoma brucei brucei) (UniProt O15648)
# UniProt O15648, sequence (O15648 whole entry, looked up): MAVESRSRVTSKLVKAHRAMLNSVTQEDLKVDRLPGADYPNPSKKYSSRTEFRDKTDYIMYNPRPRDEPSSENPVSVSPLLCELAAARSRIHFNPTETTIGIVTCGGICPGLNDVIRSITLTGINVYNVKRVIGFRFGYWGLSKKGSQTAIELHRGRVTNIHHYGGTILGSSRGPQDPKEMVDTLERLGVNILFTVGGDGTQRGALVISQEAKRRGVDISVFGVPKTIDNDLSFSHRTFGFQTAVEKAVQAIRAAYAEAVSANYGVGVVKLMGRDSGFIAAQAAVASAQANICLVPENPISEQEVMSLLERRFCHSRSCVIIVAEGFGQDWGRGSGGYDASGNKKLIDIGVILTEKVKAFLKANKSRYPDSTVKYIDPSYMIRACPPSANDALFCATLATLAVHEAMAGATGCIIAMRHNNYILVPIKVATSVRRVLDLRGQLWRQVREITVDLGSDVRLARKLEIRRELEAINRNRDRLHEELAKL
# Assay: qHTS Assay to Find Inhibitors of T. brucei phosphofructokinase; further: nearly all actives have a fitted effect of over 60% in size
# Details: T. brucei PFK, ADP-Glo luminescence; series mostly up to 57.5 µM
# How it was run: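 Luminescent ADP detection (ADP-Glo, two-step: ATP depletion then ADP-to-ATP conversion for luciferase) reported PFK activity after 45 min room-temperature reaction of 1.25 nM enzyme with 0.5 mM F6P and 0.1 mM ATP at pH 8.0.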
# Potency means the concentration at half of the fitted maximal effect; tags describe the fitted curve by direction and shape.
row,Structure (SMILES),Potency
1,O=C(Cc1ccc([N+](=O)[O-])cc1)N/N=C/c1ccco1,active: 19 µM
2,O=C1CC(c2ccc(O)cc2)Oc2cc(O)cc(O)c21 (configuration not stated),"inconclusive [activator, single point]"
3,CC(C)[N+](C)(CCC(C(N)=O)(c1ccccc1)c1ccccc1)C(C)C,"inconclusive [falling, single point]"
4,Cc1[nH]c2c(Cl)cccc2c1CCN,active: 19 µM
5,CC1=C[C@@H]2c3cccc4[nH]cc(c34)C[C@H]2N(C)C1,inactive
6,COCCn1c(C)cc(C(=O)COC(=O)c2cc3c(s2)CCC3)c1C,"inconclusive [falling, partial curve]"
7,O=Cc1cn(Cc2ccc([N+](=O)[O-])cc2)c2ccccc12,active: 16.9 µM
8,C[C@]12CCC3C(CC[C@H]4C[C@H](N)CC[C@]34C)C1CC[C@H]2O (some centres not stated),inactive
9,O=C(Nc1ccc(Cc2ccncc2)cc1)c1ccc(Cl)c([N+](=O)[O-])c1,active: 21.3 µM
10,Clc1ccc2c(c1)C(OC1CN3CCC1CC3)c1ccccc1CS2 (configuration not stated),inactive
11,CCOC(=O)c1ccc(NC(=O)C2C3C=CC(O3)C2C(=O)O)cc1 (configuration not stated),inactive
12,CCOC(=O)c1ccc(N2C(=O)CC(N3CC=C(c4ccc(F)cc4)CC3)C2=O)cc1 (configuration not stated),"inconclusive [falling, single point]"
13,C=CCNC(=S)NNC(=O)c1cccn(Cc2ccc(Cl)c(Cl)c2)c1=O,active: 8.49 µM
14,COc1ccc(-n2nc(C(=O)NCC(=O)N3CCC4(CC3)OCCO4)c3ccccc3c2=O)cc1OC,inactive
15,O=C(Cn1sc2ccccc2c1=O)NC12CC3CC(CC(C3)C1)C2,active: 4.26 µM
16,CC(C)c1ccc(N2C(=O)NC(=O)/C(=C\C=C\c3ccco3)C2=O)cc1,inactive
17,COc1cc(O)c(C(=O)O)c(-c2cc(O)c(O)cc2C)c1,"inconclusive [falling, single point]"
18,Cc1nn(C(C)(C)C)c(C)c1/C=N/OC(=O)Nc1ccc(Cl)c(Cl)c1,active: 16.9 µM
19,CC1=NCCc2c1[nH]c1cc(O)ccc21,inactive
20,O=C(c1ccc2c3c(cccc13)CC2)C1CCCN(Cc2ncc[nH]2)C1 (configuration not stated),inactive
21,Cc1cc(Oc2cc(NN3CCCCC3)c([N+](=O)[O-])cc2[N+](=O)[O-])ccc1[N+](=O)[O-],"inconclusive [falling, single point]"
22,Oc1cc2c(cc1O)[C@H]1c3ccccc3CN[C@@H]1CC2,active: 2.39 µM
